According to publication PMC12136788:
The other results are listed elsewhere or left out.

B1: chr4:148551591:148551592:-_ENSMUSG00000063077_ENSMUST00000060537|mus_hu|mus_mus_mus_hu_False|8_78 (ssRNA)
RNA: GGGAGUUCUACAGUCCGACGAUCACCUGACAAAAUUAAAUAUCCCUGUAAAUUAGACAAGAAGCAGCAGGCAACAAAGUCUUUGCUUUGGAAUAUGUGCCAGGAAAAGUCAUCUUGUUUUUAGAUCACACCUUUCAGUUCACACAACAGAGGAUUGAGCAUCA
B2: chr9:35286173:35286174:+_ENSMUSG00000038119_ENSMUST00000042842|mus_mus|motif|central (ssRNA)
RNA: GGGAGUUCUACAGUCCGACGAUCAGUAUUAUUGUUACUUGAUGGAACAUACGUCCAUUUCAGCAUGAUCUGAGUGUCGCGGACAGCCUCUGUGUAUGCGAUGUGAGGUCCAGUUAUUGGGCGAUUGGAAAAACGAUUUGGGAACAACAGAGGAUUGAGCAUCA
B3: chr2:169732673:169732674:-_ENSG00000152253_ENST00000282074|hu_mus|FALSE|FALSE (ssRNA)
RNA: GGGAGUUCUACAGUCCGACGAUCAUACAGAUCCGCUGAUUUCUGCAGUCCUUUCAAUCUCUCUUCAUUAGCUUUGUUAGCAGUGGAAAUGGUUUCCCUCUUCCUAGCGUACUCUUCCUUGAGCUCCUGGAUUUUAGCAGUCAGCAACAGAGGAUUGAGCAUCA
B4: chr3:20008827:20008828:+_ENSMUSG00000002428_ENSMUST00000002502|mus_mus|motif|central (ssRNA)
RNA: GGGAGUUCUACAGUCCGACGAUCUGAGGCUUUAAGAGGUGUUUCUAUUAAAGACAAGAAUGUGGUAAACUGAGAAACAACGGAACUUUUUAUGUUGGGGUCCUUUGUCCGUAAUUCAAUCAAAGCAUGCAUUAGAGCAUUAAUCAACAGAGGAUUGAGCAUCA
B5: 25800408_25800528_2498_CDS_ENSMUSG00000003378_ENSMUST00000003468|mouse|control|control (ssRNA)
RNA: GGGAGUUCUACAGUCCGACGAUCGUUCAUGGUGGACUCCAGCAGGAAGGCAUAGCGGGAGUUGAGGACGCGGGCGAUUCCCUCCUCUGUGCUCUUGACAAACACGCUGGGCUGCUUCGAUUGCAUGUAGUUCCACAUCCGCUGCAACAGAGGAUUGAGCAUCA
B6: chr1:10192443:10192444:+_ENSG00000130939_ENST00000377157|hu_hu|motif|central (ssRNA)
RNA: GGGAGUUCUACAGUCCGACGAUCGACAGCCGCCAUGUAACUGAGAGCAGCCUCACGGGUUUCGCCAUUUAACAAAAUACGGUGCAGAAUCUUAAAAAGCUCUUGCCUUCCGAGCUCUAAGUAAUGCUGCAAUGAUUGGCUAACCAACAGAGGAUUGAGCAUCA
B7: chr17:64801638:64801639:+_ENSG00000154229_ENST00000413366|hu_mus|hu_hu_hu_mus_False|18_58 (ssRNA)
RNA: GGGAGUUCUACAGUCCGACGAUCUAUAUAUAUAUAUACAUAUGUACACAUAUAUAGUAAAACCCUAGUUAAACGUGUAAACUAGCCAUUCAUUUUUAAAAUUACAUCUACAUUAAAAAAGUAAUCUAUCUGAUAGAGUGCCAGCAACAGAGGAUUGAGCAUCA
B8: chr7:20150648:20150649:-_ENSMUSG00000044709_ENSMUST00000117222|mus_hu|FALSE|FALSE (ssRNA)
RNA: GGGAGUUCUACAGUCCGACGAUCCUUGAAGGUAUAUGAAAUAAUGUCACUACAUCGGAGCAGCGCCUCUGCUUGCACACCUAUGGGAGUCUGCAGCUGUGACACGUAGAAGUUGGCCACAUCCAGGUCGGUGGCUCCAAAGUGCAACAGAGGAUUGAGCAUCA
B9: 8912981_8916296_215_3pUTR_ENSMUSG00000023156_ENSMUST00000023924|mouse|control|control (ssRNA)
RNA: GGGAGUUCUACAGUCCGACGAUCAUGUAGUGAUACUCUGAGGGGCUCUUGUAAACUACUCUUUCAUAUGCAGUCGCUGGCAUCUUCCAACAUGGACACCUGCCCCGCGAGGCUAAACCGCCUCGGCCCAGGACGGAGAGGAUCCAACAGAGGAUUGAGCAUCA
B10: 24911426_24911546_652_3pUTR_ENSMUSG00000006476_ENSMUST00000102931|mouse|control|control (ssRNA)
RNA: GGGAGUUCUACAGUCCGACGAUCAGCUGGGCACAUCCUGGGCACUCUUUGGAGCCCUGGCGGCUUCCUGCCCAGCUUUGGCAGGGCCUGCUGAUGUCCUCCCGGCUGCUGCCUGGGCUGGCACGCAGGGGCUGGCUGUGGUGGCAACAGAGGAUUGAGCAUCA
B11: chr10:126434673:126434674:+_ENSMUSG00000078429_ENSMUST00000105256|mus_mus|FALSE|FALSE (ssRNA)
RNA: GGGAGUUCUACAGUCCGACGAUCUGACUGACAUUGAAAGCAACAGGGCUGAGAGCUCAGAGCUGCCCAGAGCACAGAGCUAUGAGGACCUCACUCAGUCCUAUAACGAGAAGCAGGAGGCAUUUGGCAAAUCAAGUAAGAGCACAACAGAGGAUUGAGCAUCA
B12: 74646769_74647007_1152_CDS_ENSG00000113161_ENST00000287936|human|control|control (ssRNA)
RNA: GGGAGUUCUACAGUCCGACGAUCGUUUUUUAAUGAGAGUGUAGAUUCUGUCUCUGUUUGUUCAAAGAAGAUGUACUUGACAGCCAGAAGGAGAGCUAAACUUAGGGUAAUAACUUGUUCAAUAUCCAUGCUGAUCAUUUUAGACAACAGAGGAUUGAGCAUCA
B13: chr6:109690081:109690082:-_ENSG00000135535_ENST00000310786|hu_hu|FALSE|FALSE (ssRNA)
RNA: GGGAGUUCUACAGUCCGACGAUCCAGUCCUUAUUAAUUCAAUGGGUCUGUUUACAGAGUGUGGUAAUUUCGUUCUUUAGAUUUGCAGAAUUUAUAAAGAAAGAAAAUUACAGCCUGCACACCCAAGACCAGGACAAUUCCUCCCAACAGAGGAUUGAGCAUCA
B14: chr2:198351390:198351391:-_ENSG00000144381_ENST00000345042|hu_hu|hu_hu_hu_mus_False|68_108 (ssRNA)
RNA: GGGAGUUCUACAGUCCGACGAUCUCAUUCUCACUCUCCACAGAAAGGCUGCUUCUGAACUCUCAUGGUGGUGGCAAGCGCUACAGUCCUGAUGCUCACAGAACAGUAGAGAUGCCUCAGUGAUUUAAGUUGAAAGCAGGACACCAACAGAGGAUUGAGCAUCA
B15: chr1:235506033:235506034:+_ENSG00000152904_ENST00000391855|hu_mus|FALSE|FALSE (ssRNA)
RNA: GGGAGUUCUACAGUCCGACGAUCAUAGUAUUAUUUAUUUUCUUCUGUGAACAUCUUACUUAAGUGCUUGACUAAAGCCACUAGUGAAGGGUUCCCACCACAGGCCUCAAUUUGUUUGUAGGCUUUAGCUUCAAGCUCUCUAAGCAACAGAGGAUUGAGCAUCA
B16: 28084974_28085094_2391_CDS_ENSMUSG00000002221_ENSMUST00000002291|mouse|control|control (ssRNA)
RNA: GGGAGUUCUACAGUCCGACGAUCAAGACCCAAGACCAAGUGUGGAGUGGGAACGAAGGGGUCCGGCAUGUUGAAGGCGGUGUACCGGCUGUACUGCACUUGCCGCAGGGCCUCAAAGUUCCCCAGCAGAAUGUCCCCCAGCCACAACAGAGGAUUGAGCAUCA
B17: chr11:74329583:74329584:+_ENSG00000077514_ENST00000263681|hu_hu|motif|central (ssRNA)
RNA: GGGAGUUCUACAGUCCGACGAUCAGACGAAGAGGAUUCAGCAGGAGCUCUAGGGACGGCAGCUGCACAUUGUAUAGCACGGAAUUUGCUGCAGUUCUGCAAGUUGCUUUUAAGGAUGUCAUAGUCAGUAUUGAACAGAGGCCCCAACAGAGGAUUGAGCAUCA
B18: chr4:39739082:39739083:+_ENSG00000078140_ENST00000261427|perfect_dup|FALSE|FALSE (ssRNA)
RNA: GGGAGUUCUACAGUCCGACGAUCUAUUUUUAUCUCUAGUUGGUAUCUUCCUCCUUCAUAUGGUGUGUCUGGAGGUCCUGCUAUUUCUCCUCUUAAUUCUGUAAAAUUCUCAUCUACAAGAUCUACUUUAAUUUGAUUUUUGCUCAACAGAGGAUUGAGCAUCA
B19: chr2:71371598:71371599:+_ENSG00000124383_ENST00000244230|hu_hu|FALSE|FALSE (ssRNA)
RNA: GGGAGUUCUACAGUCCGACGAUCAAAGUGGAAGUUUGAGAGGGCAUCCAAUUUUAAGAAGAGGGAAUCCAUCAUCUUCUGAAUUUCUACAUGUUCUGGAUUUUCUUCUUCUGCUGUUUUUUGCUGGUUGAGUUUGAUGUACUCCAACAGAGGAUUGAGCAUCA
B20: chr18:52893488:52893489:-_ENSG00000196628_ENST00000354452|hu_hu|hu_hu_hu_mus_True|1_38 (ssRNA)
RNA: GGGAGUUCUACAGUCCGACGAUCUAUUUAGACCAUUUCCGCGGAGUUAUGGCAUUUACUCAGUGCUGAUAGGUGGAAAAACUACUUCAACAGGGAUUUUUUUUUUUCUUAAUACAUGCCAAGAUUGUGUGGCUGUCAAAAAUACAACAGAGGAUUGAGCAUCA
B21: 27494382_27495587_4028_CDS_ENSG00000077235_ENST00000561623|human|control|control (ssRNA)
RNA: GGGAGUUCUACAGUCCGACGAUCACCUCUUCGAUUCAUGAAAUCUCCAACAAGUGCUUUAUCCUGGUACACCUCGGCCAGGCACACUUUAUAGUUGAGAUAGGCCUGUGGGUUUUUGACUAUGUAGCGAGCUCUUCGUCCAACCAACAGAGGAUUGAGCAUCA
B22: chrX:119387588:119387589:+_ENSG00000177485_ENST00000326624|hu_hu|motif|central (ssRNA)
RNA: GGGAGUUCUACAGUCCGACGAUCUGAGAUGCUUUUAACCUGUGACAAUGGGACACCAAGCUCUGCUAUAAAUUUCACUCCGGAUAACUGCCCUGAUUUAAUUAACUCAUCAAGCAAAUCUGAUCUAACACGAACAAUUUUAGACAACAGAGGAUUGAGCAUCA

The binders below were run against T1, UNK ZnF1-3 (human, UniProt Q9C0B0 31-174) (assay: nsRBNS (natural sequence RNA bind-n-seq); RBNS binding buffer (assumed for nsRBNS): 25 mM Tris pH 7.5, 150 mM KCl, 3 mM MgCl2, 0.01% Triton X-100, 500 ug/ml BSA, 20 U/ml SUPERase-In, 4 C; UNK is unkempt and MSI1 is Musashi-1; names of the RNAs are library labels; protein concentration not given here; high values mean tight binding).
T1 sequence: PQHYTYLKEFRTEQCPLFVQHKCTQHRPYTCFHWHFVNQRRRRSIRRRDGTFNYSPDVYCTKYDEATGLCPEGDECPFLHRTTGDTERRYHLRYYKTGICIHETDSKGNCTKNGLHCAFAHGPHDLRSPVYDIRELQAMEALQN

Binder | binding signal
B1 | 1.27 enrichment R
B2 | 1.13 enrichment R
B3 | 0.463 enrichment R
B4 | 0.696 enrichment R
B5 | 1.19 enrichment R
B6 | 1.21 enrichment R
B7 | 0.957 enrichment R
B8 | 1.09 enrichment R
B9 | 1.32 enrichment R
B10 | 0.515 enrichment R
B11 | 2.2 enrichment R
B12 | 0.889 enrichment R
B13 | 1.4 enrichment R
B14 | 1.14 enrichment R
B15 | 0.938 enrichment R
B16 | 0.846 enrichment R
B17 | 1.36 enrichment R
B18 | 0.379 enrichment R
B19 | 0.987 enrichment R
B20 | 1.06 enrichment R
B21 | 1.08 enrichment R
B22 | 1.4 enrichment R
